We go through 25 molecules from patent US20220289791A1 (UNIVERSIT CATHOLIQUE DE LOUVAIN, published 2022).

*1 amine or outer side, *2 acyl side, *3 side chain or, on linkers, in order; H or OH if unused. Bridges are numbered along the chain shown (N, C = ends). Primed or numbered codes have the meaning given here. Where no end group is shown, it is not given here. [ ]: non-standard residue; d: D form. α,α′‑bisbromoxylene = α,α′-bisbromoxylene, an alkylating agent that cross-links two Cys; p‑tetrafluorophenyl = Cys-Cys linker made by stapling with hexafluorobenzene; C6F4(1,4-diyl) = Fc1c(F)c([*:2])c(F)c(F)c1[*:1]; mXylylene = c1cc(C[*:1])cc(C[*:2])c1; Ala(cPr) = N[C@@H](CC1CC1)C(=O)O; tBuAla = CC(C)(C)C[C@H](N)C(=O)O; Aib = CC(C)(N)C(=O)O

For experiment [1], the target named is T1, truncated LDHB (LDHBtr), LDHB subunit lacking the first N-terminal 19 amino acid residues, 6His tagged (human, UniProt P07195 21-334).
T1 construct: Expressed in E. coli from pET-28a with a 6His tag; Labelled with Red-dye-NHS for MST; also called hLDHBtr; rLDHBtr
Nature of the experiment: MST, 10 to 20 s on time, Red-dye-NHS labelled LDHBtr 100 nM.

Experiment [2] has as its target T1, truncated LDHB (LDHBtr), LDHB subunit …. Nature of the experiment: MST (raw fluorescence), Red-dye-NHS labelled LDHBtr 100 nM.
For experiment [3] the target is unchanged. As to the kind of experiment: NMR WaterLOGSY, peptide 800 µM, LDHBtr 15 µM.
Experiment [4] has the same target. Nature of the experiment: MST, Red-dye-NHS labelled LDHBtr 100 nM.
Experiment [5] has the same target. As to the kind of experiment: MST, Red-dye-NHS labelled LDHBtr 100 nM; MST titration, Kd fit (weak, millimolar binding).
Experiment [6] shares this target. Nature of the experiment: MST, labelled LDHBtr 100 nM, MST on time 10 to 20 s, n=3.

T1 sequence (P07195 21-334 limits assumed): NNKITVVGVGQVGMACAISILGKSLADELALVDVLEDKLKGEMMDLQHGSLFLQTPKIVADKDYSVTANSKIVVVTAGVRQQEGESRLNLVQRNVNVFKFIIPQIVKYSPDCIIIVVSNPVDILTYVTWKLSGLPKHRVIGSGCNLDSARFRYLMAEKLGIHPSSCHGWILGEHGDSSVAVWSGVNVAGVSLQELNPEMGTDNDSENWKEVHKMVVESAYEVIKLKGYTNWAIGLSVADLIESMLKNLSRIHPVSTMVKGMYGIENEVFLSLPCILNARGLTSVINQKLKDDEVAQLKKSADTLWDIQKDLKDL

B1: macrocyclic peptide MP3 (peptide)
peptide: ACLKECLI-NH2
modifications: linker 2-6 via mXylylene; N-terminus assumed
SMILES: CC[C@H](C)[C@H](NC(=O)[C@H](CC(C)C)NC(=O)[C@@H]1CSCc2cccc(c2)CSC[C@H](NC(=O)[C@H](C)N)C(=O)N[C@@H](CC(C)C)C(=O)N[C@@H](CCCCN)C(=O)N[C@@H](CCC(=O)O)C(=O)N1)C(N)=O
For B1, the Kd (as a rule, the concentration at which binding is half-saturated) in experiment [1] was 787 µM.
Turning to ATLKCKLIC-NH2 (linker 5-9 via α,α′‑bisbromoxylene) [LT020], binding in experiment [2] was characterised by a dissociation constant (Kd) of 477 µM.
As to ATLKDQLIYNLLKEEQTPQ-NH2 [LA19], the binding result in experiment [3] is reported as “binds”.
As for CT[tBuAla]KCKLI-NH2 (linker 1-5 via p‑tetrafluorophenyl) [macrocyclic peptide CT-44], the equilibrium dissociation constant (Kd) in experiment [1] is 9.43 µM.

B2: LB8-Aib1 (peptide)
peptide: ATL[Aib]EKLI-NH2
modifications: N-terminus assumed
SMILES: CC[C@H](C)[C@H](NC(=O)[C@H](CC(C)C)NC(=O)[C@H](CCCCN)NC(=O)[C@H](CCC(=O)O)NC(=O)C(C)(C)NC(=O)[C@H](CC(C)C)NC(=O)[C@@H](NC(=O)[C@H](C)N)[C@@H](C)O)C(N)=O
Regarding B2, the binding result in experiment [3] is given as “binds”.
For ATLKEKLIAPVAEEEATVP-NH2 [LB19, LDHB 19 N-terminal amino acid peptide], in experiment [4], the Kd is 0.27 mM.

B3: macrocyclic peptide MP2 (peptide)
peptide: ACTLKCKLI-NH2
modifications: linker 2-6 via mXylylene; N-terminus assumed
SMILES: CC[C@H](C)[C@H](NC(=O)[C@H](CC(C)C)NC(=O)[C@H](CCCCN)NC(=O)[C@@H]1CSCc2cccc(c2)CSC[C@H](NC(=O)[C@H](C)N)C(=O)N[C@@H]([C@@H](C)O)C(=O)N[C@@H](CC(C)C)C(=O)N[C@@H](CCCCN)C(=O)N1)C(N)=O
B3: in experiment [1], binding was put at a Kd of 67 µM.
Molecule ACLKECLI-NH2 (linker 2-6 via α,α′‑bisbromoxylene) [VS-142-BisAlk] yielded a Kd in experiment [2] of 233 µM.

B4: macrocyclic peptide MP4 (peptide)
peptide: ATLKCKLIC-NH2
modifications: linker 5-9 via mXylylene; N-terminus assumed
SMILES: CC[C@H](C)[C@@H]1NC(=O)[C@H](CC(C)C)NC(=O)[C@H](CCCCN)NC(=O)[C@@H](NC(=O)[C@H](CCCCN)NC(=O)[C@H](CC(C)C)NC(=O)[C@@H](NC(=O)[C@H](C)N)[C@@H](C)O)CSCc2cccc(c2)CSC[C@@H](C(N)=O)NC1=O
As to B4, the equilibrium dissociation constant (Kd) in experiment [1] turned out to be 398 µM.
In experiment [4], ATLKDQLI-NH2 [LA8] registered a Kd of 3.1 mM.

B5: macrocyclic peptide MP11 (peptide)
peptide: ATLKEKLI-NH2
modifications: lactam N-5
SMILES: CC[C@H](C)[C@H](NC(=O)[C@H](CC(C)C)NC(=O)[C@H](CCCCN)NC(=O)[C@@H]1CCC(=O)N[C@@H](C)C(=O)N[C@@H]([C@@H](C)O)C(=O)N[C@@H](CC(C)C)C(=O)N[C@@H](CCCCN)C(=O)N1)C(N)=O
B5: the Kd in experiment [1] was 465 µM.

B6: macrocyclic peptide MP1 (peptide)
peptide: CTLKCKLI-NH2
modifications: linker 1-5 via mXylylene; N-terminus assumed
SMILES: CC[C@H](C)[C@H](NC(=O)[C@H](CC(C)C)NC(=O)[C@H](CCCCN)NC(=O)[C@@H]1CSCc2cccc(c2)CSC[C@H](N)C(=O)N[C@@H]([C@@H](C)O)C(=O)N[C@@H](CC(C)C)C(=O)N[C@@H](CCCCN)C(=O)N1)C(N)=O
B6 gave a Kd in experiment [1] of 64 µM.
CTLKCKLI-NH2 (linker 1-5 via o‑benzyl) [macrocyclic peptide MP8] yielded a Kd in experiment [1] of 25 µM.
On to ATLKEKLIAPVAE-NH2 [LB13], for which the Kd in experiment [4] is 0.605 mM.

B7: macrocyclic peptide MP10 (peptide)
peptide: Ac-KTLKDKLI-NH2
modifications: lactam 1-5
SMILES: CC[C@H](C)[C@H](NC(=O)[C@H](CC(C)C)NC(=O)[C@H](CCCCN)NC(=O)[C@@H]1CC(=O)NCCCC[C@H](NC(C)=O)C(=O)N[C@@H]([C@@H](C)O)C(=O)N[C@@H](CC(C)C)C(=O)N[C@@H](CCCCN)C(=O)N1)C(N)=O
Molecule B7 displayed an equilibrium dissociation constant (Kd) in experiment [1] of 142 µM.
Turning to CTLKCKLI-NH2 (linker 1-5 via α,α′‑bisbromoxylene, also called LT018 polypeptide) [LT018], the affinity in experiment [2], expressed as Kd, was 66 µM.

B8: LB8-Aib3 (peptide)
peptide: ATL[Aib]E[Aib]LI-NH2
modifications: N-terminus assumed
SMILES: CC[C@H](C)[C@H](NC(=O)[C@H](CC(C)C)NC(=O)C(C)(C)NC(=O)[C@H](CCC(=O)O)NC(=O)C(C)(C)NC(=O)[C@H](CC(C)C)NC(=O)[C@@H](NC(=O)[C@H](C)N)[C@@H](C)O)C(N)=O
For B8, the binding result in experiment [3] is “binds”.

B9: LB8-Aib2 (peptide)
peptide: ATLKE[Aib]LI-NH2
modifications: N-terminus assumed
SMILES: CC[C@H](C)[C@H](NC(=O)[C@H](CC(C)C)NC(=O)C(C)(C)NC(=O)[C@H](CCC(=O)O)NC(=O)[C@H](CCCCN)NC(=O)[C@H](CC(C)C)NC(=O)[C@@H](NC(=O)[C@H](C)N)[C@@H](C)O)C(N)=O
With B9, the binding result in experiment [3] is reported as “binds”.
For the molecule CTLKCK[Ala(cPr)]I-NH2 (linker 1-5 via p‑tetrafluorophenyl) [macrocyclic peptide CT-45], the affinity in experiment [1], expressed as Kd, was 7.82 µM.
Regarding ATLKEKLI-NH2 [LB8], the Kd came to 1.44 mM in experiment [4] and 1050 µM in experiment [1].
Take ATLAEALI-NH2 [LB8-A3-A5]: the binding result in experiment [3] is “binds”.
As for AALKEKLI-NH2 [LB8-A1], the Kd in experiment [5] amounted to 8.2 mM.
In the case of ATGKEKLI-NH2 [LB8-G3], in experiment [4], the Kd was greater than 10 mM.
The same measure, in the same setting: then ATLKEKAI-NH2 [LB8-A6], with greater than 10 mM.

B10: macrocyclic peptide MP7 (peptide)
peptide: CTLKCKLI-NH2
modifications: linker 1-5 via C6F4(1,4-diyl); N-terminus assumed
SMILES: CC[C@H](C)[C@H](NC(=O)[C@H](CC(C)C)NC(=O)[C@H](CCCCN)NC(=O)[C@@H]1CSc2c(F)c(F)c(c(F)c2F)SC[C@H](N)C(=O)N[C@@H]([C@@H](C)O)C(=O)N[C@@H](CC(C)C)C(=O)N[C@@H](CCCCN)C(=O)N1)C(N)=O
Take B10: the EC50 (read off the curve) – broadly, the concentration that produces a half-maximal response – in experiment [6] was roughly 10 µM.
